Source: ChEMBL document CHEMBL4888484, “Replenishing the malaria drug discovery pipeline: Screening and hit evaluation of the MMV Hit Generation Library 1 (HGL1) against asexual blood stage Plasmodium falciparum ,using a nano luciferase reporter read-out” (2022)
About 410 (8.5%) of roughly 4,800 compounds showed an effect of 50% or more. This is one part of the list.

System: Plasmodium falciparum
Assay: Confirmatory screen in NF54 pLDH assay, in single point, at 2uM, 72h
Format: functional, Erythrocyte
Settings: timepoint 72 hour

SMILES | % Inhibition [%]
Cc1csc([C@@H]2CN(c3cnccn3)CCO2)n1 | -1
COCc1ccc(C(=O)N(c2ccc(F)cn2)C2CCOCC2)cc1 | -12
Cc1noc(CCNC(=O)N2CCCCC[C@H]2c2ccc(C)o2)n1 | -1
Cn1cc(C(=O)c2nc(-c3ccccc3Cl)no2)cn1 | -5
Cc1ccc(C(=O)N(C(=O)c2ccc(C)cc2C)c2ccc(Br)cn2)c(C)c1 | -16
CCOc1cc(N2CCOCC2)c(OCC)cc1NC(=O)c1ccc(C)c(NC(=O)c2ccco2)c1 | 6
Clc1ccc(OCCNCCOc2ccc(Cl)cc2Cl)c(Cl)c1 | 11
Cc1noc(-c2ccc(C(C)(C)C)cc2)c1C(=O)NCCOc1ccccc1 | 8
Cc1noc(C)c1S(=O)(=O)Nc1cc(-c2nnc3n2CCCCC3)c(F)cc1F | 4
COc1nc(C)nc2c(CN(C)C)c(C)[nH]c12 | 11
Oc1ccc(-c2nc(-c3c[nH]c4ccccc34)cs2)cc1 | 15
CN1C2(c3ccccc3)C3C(=O)N(c4ccccc4)C(=O)C3C1(c1ccccc1)C1C(=O)N(c3ccccc3)C(=O)C12 (centres undefined) | 8
O=C1c2ccccc2N[C@]2(C(=O)Nc3ccccc32)N1c1ccc2c(c1)OCO2 | -25
CC1CC(Nc2ncnc3cc(Br)ccc23)CCN1C (centres undefined) | 95
O=C(O)c1nccc(C(F)(F)F)c1Cl | -7
CCOc1cc(-c2nn3c([C@H]4CCCN(C)C4)nnc3s2)cc(OCC)c1OCC | 2
COc1ccc2c(O)cc(-c3ccccc3)nc2c1 | 1
CCOC(=O)N1CCN(C(=O)C2c3ccccc3C(=O)N(C3CCCCC3)C2c2ccc(OC)cc2)CC1 (centres undefined) | 9
CCn1nc(-n2cnnc2)c(NS(=O)(=O)c2cccc(Cl)c2)c1C | 3
CC1CCCCC1NC(=O)N1CCCC2(CC=CCC2)C1 (centres undefined) | 14
Cc1ccccc1Cc1nnc2n1CCOC2 | 5
CCCCC12CN(S(=O)(=O)c3ccccc3)CC(C)(CN(S(=O)(=O)c3ccccc3)C1)C2=O | -6
CC(C)C[C@H]1C(=O)NCCN1Cc1ncc(-c2ccccc2)o1 | 2
C[C@H](C#N)CNc1ncc(Br)cn1 | 11
CO[C@H]1CCOC2(CCN(C(=O)c3ccccc3F)CC2)C1 | 9
Cc1nn(CC2CC2)c(=O)n1-c1ccc(F)cc1 | -11

SMILES | % Inhibition [%]
Brc1cc(Br)c2nc(-c3cnccn3)ccc2c1 | 14
COc1ccc(-c2cc(C[C@H]3CNCC[C@H]3CC(=O)Nc3ccccc3)no2)cc1 | 13
Cc1noc(OCCc2ccccc2)n1 | 11
CCOC(=O)c1cc(F)cc(S(=O)(=O)Nc2ccnc3ncnn23)c1 | -3
COc1ccc(CCNC(=O)C2CCN(c3nccn4nc5c(c34)CCCC5)CC2)cc1OC | 23
COc1ccc(S(=O)(=O)N(CC(=O)NCc2cccnc2)C2CCCCC2)cc1OC | 12
C#CCOCC(O)CN(Cc1c(-c2ccccc2)noc1N1CCC(C)CC1)CC1CCCO1 (centres undefined) | -15
Cc1c(Cl)cccc1NC(=O)CN1N=C(C(=O)Nc2ccccc2)CCC1=O | -4
O=C(NCc1ccc(F)cc1F)c1ccc(Cn2ccn3nc4c(c3c2=O)CCCC4)cc1 | -3
Cc1cc(-c2nnc(Cc3cccc(Cl)c3)o2)n(C)n1 | -14
CN(C)c1ccc(NC(=O)C[C@@H]2C=CCC2)cc1 | 10
CC(C)c1cc(CN(Cc2cc(C(C)C)c(O)c(C(C)C)c2)C2CCCCC2)cc(C(C)C)c1O | 98
CC(C)(C)NC(=O)CNC(=O)c1cccc(F)c1 | -8
O=C(NCc1nccs1)[C@@H]1CCCN1C(=O)c1ccco1 | -6
O=C(O)C1Cc2c([nH]c3ccccc23)C(c2ccc3c4c(cccc24)CC3)N1 (centres undefined) | 6
CCc1ccc(C(=O)NCCCC2CCCC2O)cc1S(=O)(=O)N1CCOCC1 (centres undefined) | 42
O=C(NCCN1CCCC1)c1cc2n(n1)CCN(Cc1cccc(F)c1)C2=O | -27
COc1ccc(-c2cnn3ccc(-c4ccc(-n5ccc(=O)cc5)cc4)nc23)cc1OC | 10
Cc1cc(C)n(-c2c(C)[nH]c3ccccc23)n1 | -2
C[C@H](C(=O)Nc1ccc(F)cc1Cn1ccsc1=O)C1CC1 | -14
Cn1cc(Br)cc1C(=O)N1CC(O)(C2CC2)C1 | 5
COc1cccc(-c2noc3nc(C)cc(C(=O)N[C@@H](C)c4ccn(C)n4)c23)c1 | -12
Cc1ccc(CCNC(=O)c2ccc(-c3nc(CS(=O)(=O)c4ccc(C)cc4)c(C)o3)cc2)cc1 | -23
CCNc1nc(C)cc(Nc2ccc(NC(=O)c3cc(C)ccc3C)cc2)n1 | 99
Cc1cc(C(=O)Nc2c(F)cccc2OCc2ccccc2)on1 | 2
Fc1ccccc1-c1c2c(nc3ccc(Cl)cc13)CCCCCC2 | -9

SMILES | % Inhibition [%]
CC[C@@H](C(=O)NC)n1ccc2cc(S(=O)(=O)N3CCCCC3)ccc21 | 8
Cc1nn(C)c(C)c1S(=O)(=O)N1CCCN(c2ccc(F)c(F)c2)CC1 | 7
Cc1nnc(CNC(=O)Nc2cccc3c4c(oc23)CCCC4)o1 | 72
Cc1cc(F)ccc1-n1nnc(C(=O)O)c1-c1cccnc1 | -4
COc1cccc(N2CCN(c3cc4n[nH]c(=O)n4cn3)CC2)c1 | 8
CN(C)c1nccc(NC[C@H](N)c2ccccc2)n1 | -12
O=C(Nc1ccc(N2CCn3c(nc4cc(Cl)ccc43)C2)cc1)c1ccc(F)cc1 | -9
O=C(c1ccc(F)cc1)c1c[nH]c(C(=O)NCc2ccc(F)cc2)c1 | -17
Cc1ccc(S(=O)(=O)Nc2c(S(=O)(=O)c3ccccc3)c3nc4ccccc4nc3n2CCc2ccccc2)cc1 | 100
Cn1cc(-c2nn(S(=O)(=O)c3ccccc3)c(-c3cnn(C)c3)c2Cl)cn1 | 9
Cc1ccc(C)c(S(=O)(=O)NCCNc2ccc(Nc3ccncc3)nn2)c1 | 29
COc1ccc(-c2noc(CCn3c(=O)[nH]c4cc5c(cc4c3=O)OCO5)n2)c(OC)c1 | 6
CCNC(=O)c1nc(C(=O)NCc2ccco2)cs1 | -12
Cc1ccoc1C(=O)Nc1ccc(Cc2nnc3ccccn23)cc1 | -16
COc1ccc(-c2nn3c(C4CCN(C)CC4)nnc3s2)cc1 | -7
CC1CC(C)CC2(C1)NC(=O)N(CCC1OCCO1)C2=O (centres undefined) | -1
COC1(CNC(=O)NC2CC=CC2)CCC1 | 8
CN(C)c1nc(CN2CCC[C@H](c3n[nH]c(-c4ccccc4)n3)C2)ns1 | 2
COc1cc(NC(=O)N2CC(c3noc(-c4ccccc4)n3)C2)cc(OC)c1OC | 3
CC(C)(C)CC(=O)Nc1ccccc1C(N)=O | 13
CC1CN(C(=O)c2n[nH]c3ccccc23)CC(C)O1 (centres undefined) | 9
Cn1nnnc1NC/C=C/c1ccccc1 | 0
O=C(C[C@H]1CCN(C(=O)c2cc(F)ccc2F)C1)NC1CC1 | -12
CCc1ccc(C(=O)Nc2cnc(-n3ccnc3)nc2)cc1 | 29
COc1ccc(NC(=O)C2(N(Cc3nc(-c4ccccc4)cs3)C(=O)Cn3nnc4ccccc43)CCCCC2)cc1 | -3
CC(C)(C)OCCON=C(N)c1cccs1 | 13

SMILES | % Inhibition [%]
Cc1nn(Cc2ccc(Cl)cc2)c(=O)n1-c1ccc(OCc2ccccc2)cc1 | -5
CCC[N+]1(CC#C[C@@](O)(c2ccccc2)C(C)(CC)CC)CCCCC1 | 45
COC(=O)c1cn(CCc2c[nH]c3ccccc23)cc(C(=O)OC)c1=O | 12
COC1CCC(CC(=O)N[C@H]2CC(=O)N(c3ccccc3)C2)CC1 (some centres undefined) | 10
CNCCc1c(-c2ccccc2)[nH]n(-c2ccccc2)c1=O | 69
CCOc1ccc(C/C(=C/N)c2nc(-c3ccc(Cl)cc3)cs2)cc1 | 15
CC(=O)N(c1nc(COc2nc(C(C)(C)C)no2)cs1)c1ccccc1F | 17
CCC(C)(C(=O)NC1CCCC1)N(C(=O)c1cccs1)C1CCCO1 (centres undefined) | -10
Cc1cc(C(=O)Nc2nc(-c3ccc4c(c3)CCC4)n[nH]2)no1 | 7
COc1ccc2c(c1)CN(c1nnc(C3CC3)o1)CC2 | 9
Cc1ccc(F)cc1NC(=O)c1nnn(CC(=O)NCc2ccccc2Cl)c1C | -14
Cc1noc(Cn2c(=O)c3ccccc3n(CC(=O)Nc3ccc(F)cc3F)c2=O)n1 | 1
CN(CCN)c1ccc(Br)cc1C#N | 9
O=C(CCC(=O)NCc1ccccc1)NCCCN1CCOCC1 | 6
O=C(NC(c1ccccc1)C1CCOC1)c1cn(C2CCOC2)nn1 (centres undefined) | -1
Cc1ccc(NC(=O)[C@@H]2CC(=O)N=C(N3CCOCC3)N2)cc1Cl | 10
Cn1cc(CCn2nccc2-c2ccc(F)c(Cl)c2)cn1 | -2
CC(C)(CNC(=O)[C@](C)(N)c1ccccc1)C(=O)O | -1
O=C(NC1CCCC1)c1cc2c(Cl)ccc3c2n1CCO3 | 13
COCc1nncn1C1CN(C(=O)Cc2ccccc2C)C1 | -8
CCOC[C@@H](O)CN(Cc1c(C)nn(-c2ccccc2)c1Oc1cccc(C)c1)C1CC1 | 8
O=C(Nc1sc2c(c1C(=O)O)CCC2)c1ccsc1 | -3
COc1nc(N)nc(C(Cl)(Cl)Cl)n1 | 0
CC(C#N)CNCCC(C)c1ccccc1 (centres undefined) | 8
O=C(CN1C(=O)COc2cc(Br)ccc21)Nc1cccc2ccccc12 | 9
CCCn1nc(-n2cnnc2)c(NS(=O)(=O)c2ccc(Br)cc2)c1C | 11
